# Results reported in PubChem BioAssay AID504706 (National Center for Advancing Translational Sciences (NCATS), 2011).
# Screen size: about 320,000 compounds; about 200 (0.062%) were called active. Inconclusive means that the source gave no clear call. Such entries were picked first, then a sample of the others. Calls come from the whole dose curve; as a rule, active = well fitted activation curve with a large enough effect; inconclusive = small, poorly fitted or top-dose-only effect; inactive = no such curve, though single readings can be large or run the other way. Potencies of inconclusive entries are left out as doubtful fits.
# Experiment: qHTS assay for re-activators of p53 using a Luc reporter; note: nearly all actives have a fitted effect of over 45% in size
# Settings: H1299 p53-A138V BP100-luciferase reporter, luminescence, 24 h; series mostly up to 92.2 µM
# How it was run: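 p53-null H1299 cells stably carrying temperature-sensitive p53-A138V and a BP100-luciferase reporter were pinned with compounds (4-point, 1:5 series) and held 24 hrs at 37 deg C. Luminescence was read 10 min after detection reagent.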
# Potency is the fitted concentration of half-maximal effect; tags give direction and shape of the fitted curve.
row,SMILES,Potency
1,CC1(C)CC(=O)c2sc(NC(=O)c3ccco3)nc2C1,"inconclusive [activator, partial curve, poor fit]"
2,COn1c(SCc2cccnc2)nc2ccccc2c1=O,"inconclusive [activator, full curve, poor fit]"
3,CCOC(=O)C1(CCOc2ccccc2)CCN(Cc2cccc(OC)c2OC)CC1,"inconclusive [activator, single point]"
4,COc1ccc(N2C(=O)CC(N3CCCCC3)C2=O)cc1 (centres undefined),inactive
5,N#Cc1c2n(c3c(=S)nc[nH]c13)CCCCC2,inactive
6,CSc1ccc(/C=C(\C#N)C(=O)Nc2cccc(C)c2)cc1,"inconclusive [activator, partial curve, poor fit]"
7,COc1ccccc1/C=C/c1ccc2cccc(O)c2n1,"inconclusive [activator, partial curve, poor fit]"
8,CCc1ccc(O)c(N=Cc2ccccc2O)c1,"inconclusive [activator, partial curve, poor fit]"
9,Cc1ccsc1C(=O)OCc1csc(-c2ccccc2)n1,"inconclusive [activator, partial curve, poor fit]"
10,CCC(C)Sc1ccc(-c2nc3cc(C)ccn3c2NC2CCCCC2)cc1 (centres undefined),"inconclusive [activator, full curve, poor fit]"
11,Cc1cccc(C(=O)NNC(=O)c2ccccc2)c1,"inconclusive [activator, partial curve, poor fit]"
12,COc1cccc(-c2cc3nc(-c4ccccc4)cc(=O)n3[nH]2)c1,"inconclusive [activator, full curve]"
13,COc1cccc(-c2cc(C(=O)NC3CCCC3)no2)c1,"inconclusive [activator, partial curve, poor fit]"
14,Cc1ccc(NC(=O)c2cc3c(s2)CCCC3)cc1S(=O)(=O)Nc1ccccc1Cl,"inconclusive [activator, single point]"
15,Cc1cccc(NC(=S)NC(=O)/C=C/c2ccco2)n1,"inconclusive [activator, full curve, poor fit]"
16,CN(C(=O)c1ccco1)c1nnc(C23CC4CC(CC(C4)C2)C3)s1,"inconclusive [activator, partial curve, poor fit]"
17,CCN(CC)CC(=O)Nc1ccc2c(c1)N(C(=O)CN(CC)CC)c1ccccc1CC2,inactive
18,CCC(C)C(=O)Nc1nc2ccc(OC)cc2s1 (centres undefined),"inconclusive [activator, full curve, poor fit]"
19,COC(=O)c1ccc(C2C(C#N)=C(N)Oc3cc(N)ccc32)cc1 (centres undefined),inactive
20,C=CCc1cccc(/C=C/c2cc(=O)c3ccccc3[nH]2)c1O,"inconclusive [activator, full curve, poor fit]"
21,Cc1cccc(NC(=O)C2Cc3ccccc3O/C2=N\O)c1 (centres undefined),"inconclusive [activator, partial curve]"
22,Cc1ccc(-c2nn(-c3ccccc3)cc2/C=N/n2c(-c3ccncc3)n[nH]c2=S)cc1,inactive
23,Fc1ccc2nc(N3CCOCC3)sc2c1,inactive

row,SMILES,Potency
1,CCCNC(=O)c1cc(Cl)c(NC(=O)C2=CSCCO2)cc1OC,inactive
2,OCCCNc1cc(-c2ccnc(Nc3cccc(Cl)c3)n2)ccn1,"inconclusive [activator, full curve, poor fit]"
3,CC1Oc2ccccc2N(CC(=O)c2ccccc2)C1=O (centres undefined),"inconclusive [activator, single point]"
4,CCC(Sc1ccccn1)C(=O)Nc1nnc(C)s1 (centres undefined),inactive
5,Nc1c(C(=O)N/N=C/c2ccc(F)cc2)oc2nc(-c3ccccc3)cc(-c3ccco3)c12,inactive
6,CSCC[C@H](NC(=O)[C@@H]1Cc2ccccc2CN1)C(=O)Nc1ccc2c(c1)OCCO2,"inconclusive [activator, partial curve, poor fit]"
7,CCC12CN(C(=O)c3ccc([N+](=O)[O-])cc3)CC(CC)(CN(C(=O)c3ccc([N+](=O)[O-])cc3)C1)C2=O,inactive
8,CC(=O)c1cccc(NC(=O)c2sc(Cl)nc2C)c1,"inconclusive [activator, partial curve, poor fit]"
9,COCCNC(=O)CN(c1cccc(OC)c1)S(=O)(=O)c1ccc(C)cc1,inactive
10,CC(=O)C1=C(O)C(=O)N(c2ccc(Br)cn2)C1c1ccc(F)cc1 (centres undefined),inactive
11,O=S(=O)(Nc1ccc2ccccc2c1)c1ccccc1,"inconclusive [activator, single point]"
12,O=c1oc2ccccc2cc1-c1nc(-c2ccccc2)no1,"inconclusive [activator, partial curve, poor fit]"
13,Cc1cc(C(F)(F)F)n(-c2nc(C(=O)Nc3ccccc3Oc3ccccc3)cs2)n1,"inconclusive [activator, partial curve, poor fit]"
14,O=C(NCCc1ccccc1)Nc1ccc(Cl)cc1,"inconclusive [activator, partial curve, poor fit]"
15,Cc1cc2ncn(C(=O)N3CCC(C)CC3)c2cc1C,"inconclusive [activator, partial curve, poor fit]"
16,CSc1cccc(NC(=O)CSc2ncccc2C(=O)Oc2cccc([N+](=O)[O-])c2)c1,"inconclusive [activator, partial curve, poor fit]"
17,O=C(c1cc(-c2ccc(Cl)cc2Cl)on1)N1CCCC1,"inconclusive [activator, full curve, poor fit]"
18,CCOC(=O)c1ccc(NC(=S)N2CCN(C)CC2)cc1,"inconclusive [activator, single point]"
19,CCCCOc1ccc(CSc2ncn[nH]2)cc1,inactive
20,N/C(=N\OC(=O)c1ccco1)c1ccccc1,"inconclusive [activator, partial curve, poor fit]"
21,C/C(=N\N=c1/scc(C)n1Cc1ccco1)c1cccc([N+](=O)[O-])c1,"inconclusive [activator, partial curve, poor fit]"
22,Cc1ccc(OCc2nc(-c3ccccc3)no2)cc1,inactive
23,Cc1ccc(NS(=O)(=O)c2ccc(NC(=O)CN(c3cc([N+](=O)[O-])ccc3C)S(C)(=O)=O)cc2)c(C)c1,inactive

row,SMILES,Potency
1,COCC(=O)N(C)c1nnc(-c2cnc(C)cn2)s1,"inconclusive [activator, partial curve, poor fit]"
2,Cc1ccc2nc(-c3ccc(NC(=O)CSCC(=O)O)cc3)sc2c1,"inconclusive [activator, partial curve, poor fit]"
3,CC(=O)NC(c1cccs1)c1cc([N+](=O)[O-])c2cccnc2c1O (centres undefined),"inconclusive [activator, partial curve, poor fit]"
4,O=C(O)C1CCC(N2C(=O)c3cccc([N+](=O)[O-])c3C2=O)CC1 (centres undefined),"inconclusive [activator, single point]"
5,Cc1cc(C)n(-c2ccc(C(=O)Nc3ccccn3)cc2)n1,inactive
6,CSC(=S)N/N=C(\C)c1ccc(Br)cc1,"inconclusive [activator, single point]"
7,COc1ccc(NC(=O)/C(=C\c2ccc(F)cc2)NC(=O)c2ccco2)cc1,inactive
8,O=C(Nc1sc2c(c1C(=O)O)CCC2)c1ccco1,"inconclusive [activator, single point]"
9,O=C(Nc1ccc(Br)cc1)c1cnccn1,"inconclusive [activator, partial curve, poor fit]"
10,Cc1ccc(NC(=O)CN2C(=O)NC3(CCCc4ccccc43)C2=O)c([N+](=O)[O-])c1 (centres undefined),inactive
11,CCC1CCc2c(sc(NC(=O)c3ccco3)c2C(N)=O)C1 (centres undefined),"inconclusive [activator, full curve, poor fit]"
12,COc1ccc(OC)c(/C=C/C(=O)NC2=NCCS2)c1,inactive
13,FC(F)(F)c1ccc(Cl)c(N/N=C/c2ccc(N3CCOCC3)s2)c1,"inconclusive [activator, single point]"
14,Cc1cccc(N2O[C@H]3C=CC2CCCC3)n1,"inconclusive [activator, single point]"
15,CC(=O)c1cccc(NC(=O)NCc2ccco2)c1,"inconclusive [activator, single point]"
16,CC1=NN(C(N)=S)C(=O)C1N=Nc1cccc(Cl)c1 (centres undefined),"inconclusive [activator, partial curve, poor fit]"
17,Cc1ccc(-c2cnc(-c3ccncc3)o2)cc1,"inconclusive [activator, partial curve, poor fit]"
18,CCOC(=O)[C@H]1[C@H]2COc3cc(OC)ccc3[C@@H]2N2C(=O)CN(Cc3ccco3)C(=O)[C@@]12C,"inconclusive [activator, single point]"
19,CSc1ccc(/C=C(\C(=O)O)c2ccc(S(=O)(=O)N3CCCC3)s2)cc1,inactive
20,O=C(Cc1ccc(Cl)cc1)Nc1ccc(SC(F)F)cc1,"inconclusive [activator, partial curve, poor fit]"
21,COc1ccc(C(=O)NNC(=O)c2cccc(S(=O)(=O)N3CCOCC3)c2)cc1,inactive
22,COc1ccc2nc(C)cc(NCc3cccc(C(F)(F)F)c3)c2c1,inactive
23,Cc1cccc(NC(=O)COc2ccc(Br)cc2C)n1,"inconclusive [activator, full curve, poor fit]"
